Measurements taken from PubChem BioAssay AID1346428 (National Center for Advancing Translational Sciences (NCATS), 2018).
Hit rate of the full screen: of about 48,000 compounds, about 1,200 (2.5%) were called active. Another 2% or so got no clear call; they are omitted.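 The calls were made as follows: active = activation of at least 60% and not above a set upper limit (about 1 call in 100 departs from these limits); inconclusive = activation of 40% to 60%, or above that upper limit; inactive = activation under 40%.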 This is one part of the list.

Each molecule was assayed against Probable G-protein coupled receptor 32 (Homo sapiens) (UniProt O75388) (assay: qHTS for Agonists of Human Resolvin D1 Receptor DRV1). Details: CHO-K1 GPR32 beta-arrestin PathHunter luminescence, 90 min; at 76.9 µM; active compounds read high; zero percent set by DMSO-only wells.
Procedure, shortened: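 Using DMSO wells as EC0, agonist-induced signal was taken as chemiluminescence from beta-Gal reconstituted upon beta-arrestin recruitment to GPR32 in CHO-K1 cells after 90 min compound treatment.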

Sequence of UniProt O75388 (O75388 whole entry, looked up): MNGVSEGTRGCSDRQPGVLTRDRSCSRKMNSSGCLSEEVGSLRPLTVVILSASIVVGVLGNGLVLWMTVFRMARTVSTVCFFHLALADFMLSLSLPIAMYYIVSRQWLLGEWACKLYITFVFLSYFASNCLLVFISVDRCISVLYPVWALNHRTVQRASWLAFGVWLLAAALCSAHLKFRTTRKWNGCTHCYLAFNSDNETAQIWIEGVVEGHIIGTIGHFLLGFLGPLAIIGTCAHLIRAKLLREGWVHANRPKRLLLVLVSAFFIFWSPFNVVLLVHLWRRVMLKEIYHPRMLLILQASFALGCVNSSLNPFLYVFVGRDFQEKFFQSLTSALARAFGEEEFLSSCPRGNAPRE

| SMILES | activation |
| --- | --- |
| CN1C(C(=O)NC(C)(C)C)=CC(c2ccc3c(c2)OCO3)=NS1(=O)=O | inactive: -2.88% |
| Cc1cc(C)c2oc(C(=O)Nc3nc4ccc(Cl)cc4s3)cc(=O)c2c1 | inactive: -8.91% |
| Cc1ccc(-n2ccnc(NCc3cccs3)c2=O)cc1C | inactive: 45.1% |
| Cc1cccc(Cn2c(SCc3ccc(C(=O)NCc4ccccc4F)cc3)nc3cccnc32)c1 | inactive: -9.59% |
| CCCS(=O)(=O)c1nc(S(=O)(=O)c2ccc(C)cc2)c(NC(C)c2ccccc2)s1 (stereo not given) | inactive: -24.7% |
| Nc1nonc1-c1nc2ccccc2n1CC(=O)Nc1ccc(F)cc1 | inactive: -10.4% |
| CC(=O)c1cc(-c2ccccc2)n(CC(=O)Nc2ccc(C)cc2C)c1C | inactive: -5.28% |
| Fc1ccc(C(c2ccc(F)cc2)N2CCNCC2)cc1 | inactive: -8.58% |
| Cc1ccc(-c2nc(CS(=O)CC(=O)O)c(C)o2)cc1 (stereo not given) | inactive: 1.24% |
| Cc1ccc(S(=O)(=O)c2cn(CC(=O)Nc3ccccc3)c3cc4c(cc3c2=O)OCO4)cc1 | inactive: -5.87% |
| CCOc1ccccc1NC(=O)NC(CC)c1c(-n2cccc2)sc2c1CCN(C)C2 (stereo not given) | inactive: -23% |
| CCc1ccc(Nc2nc3ccccc3c3nnc(C)n23)cc1 | inactive: -8.75% |
| Cc1cccc(N2CCN(C(=O)c3ccc4c(c3)CCN4S(=O)(=O)c3ccccc3)CC2)c1C | inactive: -15% |
| CCc1ccccc1NC(=O)CSc1nccn1C | inactive: 1.19% |
| CCc1ccc(S(=O)(=O)c2nnn3c2nc(NCCC(C)C)c2cc(Cl)ccc23)cc1 | inactive: -14% |
| CCOC(=O)c1cc(OC(=O)c2cc(Cl)ccc2OC)n(-c2ccccc2)n1 | inactive: 39.1% |
| CCCN(CCC)S(=O)(=O)c1ccc(C(=O)N2CCn3c4c(c5cc(C)ccc53)CCCC42)cc1 (stereo not given) | inactive: -24.6% |
| O=C(COc1ccc(Cl)cc1Cl)Nc1ccc(C(=O)OC2CCCCC2)cc1 | inactive: 3.88% |
| Cn1nc(C(=O)Nc2cccc(C(F)(F)F)c2)c2c1-c1ccccc1S(=O)(=O)C2 | inactive: -8.77% |
| CC(=O)c1ccc(OC(=O)c2c(-c3ccccc3Cl)noc2C)cc1 | inactive: -2.07% |
| COc1ccc2c(c1)c(CC(=O)Nc1cc(C)c(OC)c(C)c1)c(C)n2C(=O)c1ccc(Cl)cc1 | inactive: -2.54% |
| Cn1c(SCC(=O)Nc2ccccc2F)nc2c([nH]c3ccccc32)c1=O | inactive: -11.8% |

| SMILES | activation |
| --- | --- |
| COc1ccccc1Nc1ncnc2c1nc1n2CCCCC1 | inactive: -2.87% |
| CCOc1ccc(NS(=O)(=O)c2ccc3[nH]cc(C(=O)NCCc4ccccc4)c(=O)c3c2)cc1 | inactive: -4.27% |
| Cc1ccc(NC(=O)C2CCN(S(=O)(=O)c3c(C)noc3C)CC2)cc1C | inactive: 3.84% |
| Cc1ccc(CN2C(=O)N(c3ccc(C)c(Cl)c3)S(=O)(=O)c3ccccc32)cc1 | inactive: -8.18% |
| COc1cccc(NC(=O)CN2C(=O)C3(SCC(=O)N3c3cc(C)cc(C)c3)c3ccccc32)c1 (stereo not given) | inactive: 11.8% |
| COC(=O)c1cc2oc(C)cc2n1Cc1ccc(Cl)cc1 | inactive: -36.7% |
| N#Cc1ccc(NC(=O)COCc2cc(-c3ccc(F)cc3)on2)cc1 | inactive: 15.8% |
| O=C(Nc1ccc(Cl)cc1C(F)(F)F)c1cc(S(=O)(=O)NCc2ccccc2)ccc1F | inactive: -2.57% |
| CCOC(=O)C1CCN(C(=O)c2nn(-c3ccc(C)cc3)c(=O)n(C)c2=O)CC1 | inactive: -7.63% |
| COC(=O)c1c(-c2cccs2)csc1NC(=O)COc1ccc(C(C)C)cc1 | inactive: -22.8% |
| CCOc1ccc(CNC(=O)c2cnc(SC)nc2C)cc1 | inactive: 24.2% |
| COc1ccc(CNC(=O)CCS(=O)(=O)c2ccc3c(c2)CC(C)N3C(=O)C2CC2)cc1 (stereo not given) | inactive: 0.325% |
| CCN(CC)C(=O)C1CCN(C(=O)c2cnn(-c3ccccc3)c2-n2cccc2)CC1 | inactive: 15.2% |
| CCOC(=O)CSc1nc2ccccc2n2c(C)nnc12 | inactive: 22% |
| O=C(CSc1nccn1C1CCCC1)Nc1ccccc1 | inactive: -4.17% |
| CCOc1ccc(-n2ccnc2SCC(=O)Nc2ccc(OC)cc2OC)cc1 | inactive: -10.1% |
| CC1=C(C(=O)OC2CCCC2)C(c2cccc(Cl)c2Cl)CC(=O)N1 (stereo not given) | active: 83.1% |
| Cc1ccc(Cl)cc1N1CCN(C(=O)c2cn(C)c3ccc(S(=O)(=O)N4CCCC4)cc3c2=O)CC1 | inactive: -3% |
| O=C(Cn1c(=O)n(-c2ccccc2)c(=O)c2c3c(sc21)CCCC3)Nc1ccc(F)cc1 | inactive: 5.68% |
| COc1ccccc1N1CCN(C(=O)c2cc3c(=O)n(Cc4cccnc4)ccc3nc2C)CC1 | inactive: -3.23% |
| Cc1ccccc1OCC(=O)Nc1nnc(S(=O)(=O)N(C)c2ccccc2)s1 | inactive: -14.9% |
| COc1ccc(Br)cc1CNC(=O)c1cc2c(=O)n(C)c3ccccc3c2s1 | inactive: 0.691% |

| SMILES | activation |
| --- | --- |
| Cc1cccc(CCNC(=O)c2nc(-c3ccc(Cl)cc3)n3c2CCCCC3)c1 | inactive: -45.2% |
| Oc1cccc2[nH]ccc12 | inactive: -20% |
| CCN1CCN(c2ncc3c(n2)CCN(Cc2ccc(C)s2)C3)CC1 | inactive: -16.6% |
| CCOc1ccc(C(=O)OCc2cc(=O)n3nc(C(C)C)sc3n2)cc1 | inactive: -4.98% |
| CO/N=C(/C(=O)N[C@@H]1C(=O)N2C(C(=O)[O-])=C(C[n+]3ccn4ncccc43)CS[C@H]12)c1nsc(N)n1 | inactive: 6.16% |
| CN(C)[C@@H]1C(=O)C(C(=O)NCN2CCCC2)=C(O)[C@@]2(O)C(=O)C3=C(O)c4c(O)cccc4[C@@](C)(O)C3C[C@@H]12 (stereo not given in full) | inactive: -6.2% |
| CC(C)CC(=O)N(Cc1ccccc1)S(=O)(=O)c1ccc2c(c1)oc(=O)n2C | inactive: -2% |
| CC(=O)c1ccc(NC(=O)COc2ccccc2-c2nc(C)no2)cc1 | inactive: -9.96% |
| CCn1c2c(c(=O)n3ncc(C(=O)Nc4ccc(F)c(Cl)c4)c13)CN(Cc1ccc(OC)cc1)CC2 | inactive: -13.4% |
| O=c1c2ccccc2nc2sc(Nc3cccc(C(F)(F)F)c3)nn12 | inactive: 5.53% |
| CCN(CC)c1ccc(C2C(C(N)=O)=C(C)Nc3nc(SCc4ccccc4)nn32)cc1 (stereo not given) | inactive: -22% |
| COC(=O)c1cc(Cl)ccc1NS(=O)(=O)C(F)(F)F | inactive: -4.14% |
| CCOC(=O)c1nnc2c(-c3ccc(F)cc3)c(C)nn2c1N | inactive: -20.4% |
| COc1ccc(/C=C\c2onc(C)c2S(=O)(=O)N2CCC(C(=O)Nc3ccc(C)c(F)c3)CC2)cc1 | inactive: -17.8% |
| CSc1cccc(NS(=O)(=O)c2ccc3[nH]cc(C(=O)N4CCCCCC4)c(=O)c3c2)c1 | inactive: -3.52% |
| Fc1ccc(-c2noc3ncnc(NCc4cccc(Cl)c4)c23)cc1 | inactive: -6.09% |
| Cc1cccc(Cc2c(C)nc3nc(SCC(=O)NC4CCCCC4)nn3c2C)c1 | inactive: -25.3% |
| COc1ccc(-c2noc(CCC(=O)Nc3ccccc3Cl)n2)cc1OC | inactive: -2.94% |
| COCCN1CN=C(NS(=O)(=O)c2ccc(C)cc2)NC1 | inactive: -9.31% |
| COc1ccccc1CNC(=O)c1cnn(-c2ccc(F)cc2F)c1C1CCN(C(=O)OC(C)(C)C)CC1 | inactive: -21.7% |
| Cc1ccc(N2CC(NC(=O)Cc3ccc(F)cc3)CC2=O)cc1C (stereo not given) | inactive: -6.33% |
| COC(=O)c1cccnc1-n1c(=O)c2cccnc2n(CC(=O)Nc2cccc(C(F)(F)F)c2)c1=O | inactive: -14.8% |

| SMILES | activation |
| --- | --- |
| CCOc1cc(C2CC(=O)Nc3c2c(C)nn3-c2nc(C)cc(C)n2)ccc1O (stereo not given) | inactive: -8.25% |
| Cc1ccc(-c2onc(C)c2C)cc1S(=O)(=O)NC1CCC(C)CC1 (stereo not given) | inactive: -24.4% |
| COc1ccccc1N1CCN(C(=O)c2oc3ccccc3c2N)CC1 | active: 70.9% |
| COc1ccc(/C=C(\C#N)c2nc(-c3cc4ccccc4oc3=O)cs2)cc1OC | inactive: -6.98% |
| CC1CCN(S(=O)(=O)c2ccc3nc(N4CCN(c5ccccc5F)CC4)ccc3c2)CC1 | inactive: -3.94% |
| FC(F)(F)c1cccc(N2CCN(Cc3nnc(-c4ccccc4)o3)CC2)c1 | inactive: -25.4% |
| O=C(/C=C/c1ccccc1)Nc1cc(-c2nc3ccccc3o2)ccc1Cl | inactive: 1.9% |
| COc1cc(C)ccc1OCCSc1nnc(-c2cccs2)o1 | inactive: -0.749% |
| CCCN(CCC)CCCNC(=O)c1nn(C)c2c1CS(=O)(=O)c1ccccc1-2 | inactive: -4.51% |
| CC(=O)Nc1nonc1-c1nnc(SCc2cccc(Br)c2)n1C | inactive: -6.63% |
| CCOc1ccccc1CNC(=O)c1ccc(Cn2c(=O)c3cccn3c3cccnc32)cc1 | inactive: -13.2% |
| CC(C)c1ccc(-c2noc(SCC(=O)N3CCCCC3)n2)cc1 | inactive: 11.4% |
| CC(C)(C)OC(=O)N1CCC(c2c(C(=O)NCc3ccccn3)cnn2-c2ccccc2Cl)CC1 | inactive: -11.4% |
| Cc1ccc(C)c(N2CCN(S(=O)(=O)c3ccc(C4CCCCC4)cc3)CC2)c1 | inactive: -8.78% |
| CCCc1noc(-c2ccc(NCc3ccccc3OC)c([N+](=O)[O-])c2)n1 | inactive: -13.7% |
| Cn1c(=O)nc2n(-c3ccc(Br)cc3)c3cccc(Cl)c3cc-2c1=O | inactive: -2.14% |
| CCC(=O)N1c2ccccc2CC1C(=O)NCCN1CCN(c2ccccc2F)CC1 (stereo not given) | inactive: 8.02% |
| Cc1ccc(NC(=O)CSc2nc(=O)n(CCN3CCOCC3)c3c2CCC3)cc1Cl | inactive: -16.8% |
| Cc1ccc(Nc2c(-c3cccc(Cl)c3)nc3cccc(C)n23)cc1 | inactive: -17.1% |
